Consider 23 compounds from paper PMC12670160, “A drug-repurposing screen of FDA- and EMA-approved drugs identifies two NF-κB inhibitors active against eumycetoma” (Journal of Antimicrobial Chemotherapy, 2025).

SMILES strings stand for the structures. Where a name gives a salt, the structure may show the parent alone. What follows is the remainder of the data, with few or none of the strong results.

The test system of this assay is M. mycetomatis strain mm55. The following applies: primary screen, metabolic activity vs growth control; 96 h, 2 µM; inhibitor.
`CCCn1c(=O)c(C)cn2nc(N)nc12` [ONC0000868, ici63197]: the “% viability” value is on record as 60.66%.
As for `Cc1cc(/C=C/c2ccc3cc(N(C)C)ccc3[n+]2C)c(C)n1-c1ccccc1.Cc1cc(/C=C/c2ccc3cc(N(C)C)ccc3[n+]2C)c(C)n1-c1ccccc1` [ONC0003722, pyrvinium], the “% viability” value turned out to be 106.5%.
As for `O=C(c1ccc(F)cc1)N1CCC[C@H](c2nc(-c3ccc(F)cc3)no2)C1` [ONC0005279, adx47273], the “% viability” value is on record as 129%.
For the compound `CCC(C)(CN(C)C)OC(=O)c1ccccc1` (centres unmarked) [ONC0002307, amyleine], the “% viability” value is 77.71%.
On to `NCCCC(N)C(=O)O` (centres unmarked) [ONC0004288, ornithine hydrochloride], for which the “% viability” value came to 70.55%.
On to `Nc1nc(N)c2nc(-c3cccc(O)c3)cnc2n1` [ONC0005260, tg 100713], for which the “% viability” value is recorded as 138.1%.
In the case of `Cc1cc(C)n(-c2cccc([C@H](CC(=O)O)CN3CC[C@@H](CCc4ccc5c(n4)NCCC5)C3)c2)n1` [ONC0001238, gsk 3008348 hydrochloride], the “% viability” value was 66.6%.
The value for `COc1cc2c(cc1OC)C(=O)C(CC1CCN(Cc3ccccc3)CC1)C2` (centres unmarked) [ONC0004266, donepezil hydrochloride] was 67.34%.
On to `C[C@@H]1C(SC2CN(C3=NCCS3)C2)=C(C(=O)OCOC(=O)C(C)(C)C)N2C(=O)[C@H]([C@@H](C)O)[C@H]12` [ONC0004883, tebipenem pivoxil l084], for which the “% viability” value was 96.39%.
For the compound `N=C(N)NCCN1CCCCCCC1` [ONC0000440, guanethidine monosulfate], the “% viability” value stood at 94%.
The value for `Nc1ccc(C(=O)Nc2cccc(-c3nc(N4CCOCC4)c4oc5ncccc5c4n3)c2)cn1` [ONC0004526, ym201636] was 65.68%; that for `C[C@@H]1CN(Cc2ccc(F)cc2)CCN1C(=O)COc1ccc(Cl)cc1NC(N)=O` [ONC0000713, bx471] was 73.97%; that for `COC(=O)C1=C(C)NC(C)=C(C(=O)OC)C1c1ccccc1[N+](=O)[O-]` [ONC0000507, nifedipine] was 62.38%.
The value for `CCn1cc(C(=O)O)c(=O)c2cc(F)c(N3CCN(C)CC3)cc21` [ONC0004198, pefloxacin mesylate] was 80.86%; that for `C[C@@H]1C[C@H]2[C@@H]3C[C@H](F)C4=CC(=O)C=C[C@]4(C)[C@@]3(F)[C@@H](O)C[C@]2(C)[C@@]1(O)C(=O)CO` [ONC0004574, flumethasone] was 73.58%.
As for `O=C1OCCN1/N=C/c1ccc([N+](=O)[O-])o1` [ONC0000487, furazolidone], the “% viability” value is 68.53%.
Consider `Cc1ccc(CCCO)c(NCc2ccc3nc(NCCCN4CCOCC4)n(Cc4nc(C)ccc4O)c3c2)c1` [ONC0002062, tmc353121], for which the “% viability” value amounted to 76.36%.
With `Cc1c(NC(=O)N2CCOCC2)ccc2c1c1ccccc1n2C(C)C` [ONC0004300, npy5ra972], the “% viability” value is 97.63%.
In the case of `CCNC(=O)C[C@@H]1N=C(c2ccc(Cl)cc2)c2cc(OC)ccc2-n2c(C)nnc21` [ONC0005049, ibet762] it was 80.17%; in that of `Cc1ccc(-c2ccc(F)cc2COc2ccc(CCC(=O)O)cc2)cc1` [ONC0000358, tug891], 99.08%; in that of `N#Cc1ccc(-c2ccc(S(=O)(=O)Nc3cccc(N)n3)cc2)cc1` [ONC0001785, pf915275], 124%.
With `Nc1nc2ccc(OC(F)(F)F)cc2s1` [ONC0003910, riluzole], the “% viability” value came to 84.65%.
In the case of `CCC[C@@H]1C[C@@H](C(=O)N[C@@H]([C@H]2O[C@H](SC)[C@H](O)[C@@H](O)[C@H]2O)[C@H](C)Cl)N(C)C1` [ONC0000785, clindamycin hydrochloride], the “% viability” value turned out to be 76.03%.
